The record followed here is PubChem BioAssay AID493208 (National Center for Advancing Translational Sciences (NCATS), 2011).

Out of some 44,000 compounds screened, about 340 (0.77%) were called active. Not shown: some 5% with an inconclusive outcome. The call rests on the fitted dose curve; in most records, active means well fitted inhibition curve with a large enough effect; inconclusive means small, poorly fitted or top-dose-only effect; inactive means flat fitted curve, though single readings scatter. Some of the results follow.
Potency means the concentration at half of the fitted maximal effect.

The test is described as follows: Acumen qHTS Assay for Inhibitors of the mTORC1 Signaling Pathway in MEF (Tsc2-/-, p53-/-) Cells: Sytravon. Further: nearly all actives have a fitted effect of over 50% in size.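 On activity change, negative = inhibition: plate controls were DMSO for no effect and rapamycin for full effect.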 The following applies: phospho-rpS6 immunofluorescence/PI, 24 h; series mostly up to 38.3 µM; activity change, negative = inhibition: at the top concentration. In short, it runs like this: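 Compounds act on Tsc2-/-, p53-/- fibroblasts carrying an empty vector for 24 h before fixation and dual staining for phospho-S6 and DNA (propidium iodide). Values are percentages of cells above a rapamycin-defined pS6/PI threshold.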
With `CCC(C)c1ccc2oc(-c3ccc(NC(=O)c4cc5ccccc5o4)cc3)nc2c1` (configuration not stated), the “activity change, negative = inhibition” value was inactive: -6.95%.
As for `COc1ccc(C2c3cc(OC)c(OC)cc3CC(=O)N2c2ccc(C)cc2)cc1` (configuration not stated), the “activity change, negative = inhibition” value is inactive: -7.5%.
On to `CCCC(=O)Nc1nnc(S(=O)(=O)N(C)Cc2ccc(Cl)cc2)s1`, for which the “activity change, negative = inhibition” value was inactive: -5.19%.
Turning to `Cc1cccc(Cn2c(=O)n3nc(-c4ccccc4)nc3c3ccccc32)c1`, the “activity change, negative = inhibition” value is inactive: -11.1%.
Same read-out and setting: to `CC(C)c1ccc(S(=O)(=O)c2nnn3c2nc(N2CCCC2)c2sccc23)cc1` belongs inactive: 5.57%.
On the same count and under the same terms, to `Cn1c(=O)[nH]c2cc(-c3noc(-c4ccc(Br)cc4)n3)ccc21` belongs inactive: -7.85%; to `COc1ccccc1Nc1nc(-c2ccccc2F)nc2ccccc12`, inactive: -1.31%.
`Cc1cccc(-c2nn3c(=O)cc(CN4CCN(C(=O)/C=C/c5ccccc5)CC4)nc3s2)c1`: the “activity change, negative = inhibition” value is inactive: 0.131%.
On the same count and under the same terms, to `COc1cc2c(C(=O)Nc3cc(OC)c(OC)c(OC)c3)cn(C)c(=O)c2cc1OC` belongs inactive: 0.262%; to `O=C(CC1N=C2c3ccccc3N=C(SCc3ccc(F)cc3)N2C1=O)NCc1ccc2c(c1)OCO2` (configuration not stated), inactive: 4.42%; to `Cc1ccc(NC(=O)CSc2nnc3ccc4ccccc4n23)cc1`, inactive: -4.1%.
With `O=C(NCCN1CCN(c2cccc(Cl)c2)CC1)Nc1ccccc1`, the “activity change, negative = inhibition” value was inactive: 0.771%.
In the case of `CCc1ccc(NC(=O)c2ccc(-c3ccccc3)s2)cc1`, the “activity change, negative = inhibition” value was inactive: -2.4%.
As to `Cc1cccc(C(=O)NCC(c2ccco2)S(=O)(=O)c2cccs2)c1` (configuration not stated), the “activity change, negative = inhibition” value was inactive: -5.63%.
Same read-out and setting: to `CCOC(=O)C1CCN(c2ncnc3c2nc2n3CCCCC2)CC1` belongs inactive: 0.359%; to `Cc1cccc(NC(=O)c2ccc(-c3ccccc3)s2)c1`, inactive: 0.201%.
In the case of `CCc1cnc2c(c1SCC(=O)NCc1ccccc1Cl)c(=O)n(C)c(=O)n2C`, the “activity change, negative = inhibition” value is inactive: -2.71%.
The same measure, in the same setting: then `CCC(Oc1ccccc1)C(=O)Nc1nnc(S(=O)(=O)N(CC)CC)s1` (configuration not stated), with inactive: -4.12%; and `COc1cc2ccccc2cc1C(=O)Nc1cccc(-c2nc3cc(C)c(C)cc3o2)c1`, with inactive: 5.68%; and `Cc1ccccc1CNC(=O)c1cnc2sc(N3CCC(C)CC3)nn2c1=O`, with inactive: 9.67%.
The same measure, in the same setting: to `CN(C(=O)CSc1nnc(NC(=O)Nc2ccccc2)s1)c1ccccc1` belongs inactive: -0.762%.
For the compound `Cc1cc(C)c(NC(=O)C2CCN(c3nc4ccccc4n4cccc34)CC2)c(C)c1`, the Potency is active: 14.7 µM.
As to `Brc1cccc(-c2nnn3c2nc(NCc2ccc4c(c2)OCO4)c2ccccc23)c1`, the “activity change, negative = inhibition” value was inactive: -22.7%.
The same measure, in the same setting: to `O=C(NCC(c1cccnc1)N1CCc2ccccc21)c1cccc(Br)c1` (configuration not stated) belongs inactive: -10.5%; to `COc1ccc(-n2ncc(C(=O)NCc3ccco3)c2C2CCN(C(=O)OC(C)(C)C)CC2)cc1`, inactive: -0.86%.
Still for that read-out and setting: to `CC(C)NC(=O)C1CCC(Cn2c(=O)c3sccc3n(Cc3ccc(F)cc3)c2=O)CC1` (configuration not stated) belongs inactive: -13.3%.
For the compound `Cc1ccc(NC(=O)/C(C#N)=C/c2ccc(-c3ccc(Cl)c(C(=O)O)c3)o2)cc1C`, the “activity change, negative = inhibition” value was inactive: 4.47%.
With `O=C1CS(=O)(=O)C2(C(=O)N(Cc3ccccc3Cl)c3ccccc32)N1c1ccc(F)cc1` (configuration not stated), the “activity change, negative = inhibition” value is inactive: 3.77%.
With `CC(C)(C)c1ccc(/C=C/C(=O)Nc2ccc(S(N)(=O)=O)cc2)cc1`, the “activity change, negative = inhibition” value was inactive: -18.5%.
Same read-out and setting: then `CCCNC(=O)Cn1c(=O)n(CC2CCC(C(=O)NC)CC2)c(=O)c2sccc21` (configuration not stated), with inactive: -3.17%.
Consider `CCN(CC)S(=O)(=O)c1ccc2c(c1)N(CC(=O)Nc1ccccc1F)C(=O)C1CCCN21` (configuration not stated), for which the “activity change, negative = inhibition” value is inactive: 0.312%.
The same measure, in the same setting: then `COc1cccc(NC(=O)C2CCCN(S(=O)(=O)c3cn(C(C)C)cn3)C2)c1` (configuration not stated), with inactive: -7.07%.
Same read-out and setting: then `CCOc1ccc(CCNC(=O)c2cc3cccc4c3n2CCS4)cc1`, with inactive: -8.12%; and `CCCC(=O)N(c1ccc2oc(C)c(C(C)=O)c2c1)S(=O)(=O)c1ccc(CC)cc1`, with inactive: -13.1%.
Still for that read-out and setting: to `COc1ccc(N2CCN(c3ncnc4c3cnn4C)CC2)cc1` belongs inactive: 7.84%; to `Cc1cccc(C(=O)Nc2ccc(S(=O)(=O)N3CCC(c4nc5ccccc5s4)CC3)cc2)c1`, inactive: 1.08%; to `COCCCNC(=O)c1cc2cc(S(=O)(=O)N3CCCCC3)ccc2n1C`, inactive: -1.21%.
For `CCC(C)(C)NC(=O)C1CCN(S(=O)(=O)c2ccc3c(c2)CCCN3C(C)=O)CC1`, the “activity change, negative = inhibition” value was inactive: -11.4%.
Same read-out and setting: to `Cc1cc(C)c(NC(=O)CSc2ncc3c(n2)-c2cc(Cl)ccc2N(C)S3(=O)=O)c(C)c1` belongs inactive: -24.4%; to `COc1cc(CN2CCc3nc(N4CCN(c5ccccn5)CC4)ncc3C2)cc(OC)c1OC`, inactive: 0%; to `O=C(Nc1ccc(Cl)cc1C(F)(F)F)c1cc(S(=O)(=O)N2CCOCC2)ccc1F`, inactive: 2.93%.
Turning to `CCOc1ccc(S(=O)(=O)n2nc(C)c(S(=O)(=O)N3CCCCC3)c2C)cc1`, the “activity change, negative = inhibition” value was inactive: -11.5%.
Same read-out and setting: then `CC(C)(C)OC(=O)N1CCC(c2c(C(=O)NCc3ccco3)cnn2-c2ccccc2Cl)CC1`, with inactive: 0.198%; and `Cc1nn(CCCC(=O)NCc2ccccc2)c(=O)c2cc3sccc3n12`, with inactive: -2.51%; and `CC(=O)c1cc(-c2ccccc2)n(CCC(=O)NC(C)c2ccccc2)c1C` (configuration not stated), with inactive: -0.634%.
The same measure, in the same setting: to `COC(=O)c1ccccc1NS(=O)(=O)c1ccc2c(c1)CCCN2C(C)=O` belongs inactive: 4.69%; to `CCCC(=O)n1nc(-c2cccnc2)nc1NCc1ccc(OC)cc1`, inactive: 7.24%.
Turning to `COc1ccc(C(=O)Nc2cc3c(cc2N2CCCC2)n(C)c(=O)c(=O)n3C)cc1OC`, the “activity change, negative = inhibition” value was inactive: -1.42%.
Same read-out and setting: to `CCOc1cc(C(=O)Nc2ccc(-c3nc4ccccc4s3)cc2Cl)cc(OCC)c1OCC` belongs inactive: -8.71%; to `Cc1cccc(C)c1NC(=O)Cn1c(=O)n(Cc2ccc3c(c2)OCO3)c(=O)c2oc3ccccc3c21`, inactive: 0.547%; to `Fc1ccc(-n2ncc3c(NCCC4=CCCCC4)ncnc32)cc1`, inactive: 8.93%.
Same read-out and setting: then `COc1ccc(C(=O)Nc2cc(S(=O)(=O)c3ccc(Cl)cc3)c(O)c(C)c2C)cc1`, with inactive: -3.66%; and `O=C(Nc1ccc(Br)cc1)C(Cc1ccccc1)NS(=O)(=O)c1cccc2nsnc12` (configuration not stated), with inactive: -0.0459%; and `COc1ccccc1NC(=O)Cn1nc(-c2ccc(C)cc2)c2c(c1=O)CCCC2`, with inactive: -4.8%.
For the compound `Cc1ccc(CNC(=O)c2c(C)oc3nc(C)nc(N4CCOCC4)c23)cc1`, the “activity change, negative = inhibition” value is inactive: 3.18%.
Regarding `CCc1ccc(-n2nc3cc(C)c(NC(=O)c4cc(OC)cc(OC)c4)cc3n2)cc1`, the “activity change, negative = inhibition” value was inactive: -3.9%.
Still for that read-out and setting: then `CC(C)(C)c1ccc(C(=O)NCC(c2cccs2)S(=O)(=O)c2cccs2)cc1` (configuration not stated), with inactive: 1.28%; and `Cc1cccc(CSCc2ccc(C(=O)NCCc3ccccc3)o2)c1`, with inactive: 2.56%; and `COc1ccccc1CCNC(=O)Cc1c(C)c2cc3c(C)coc3cc2oc1=O`, with inactive: 4.79%.
The same measure, in the same setting: then `O=C(c1cc2ccccc2oc1=O)N1CCN(c2ccc(F)cc2)CC1`, with inactive: 3.45%; and `Cc1cc(C)c2c(CC(=O)Nc3ccc(S(=O)(=O)N4CCCCC4)cc3)coc2c1`, with inactive: -4.02%.
Regarding `CCOc1cc(-c2ccc(OC(=O)c3ccc(C)cc3)c(OC)c2)cc(=O)c2c(C)oc(C)c12`, the “activity change, negative = inhibition” value was inactive: -1.65%.
